The whole screen tested about 45,000 compounds, of which about 65 (0.1%) were called active. Calls follow the shape of the dose curve; as a rule, active = well fitted activation curve with a large enough effect; inconclusive = small, poorly fitted or top-dose-only effect; inactive = no such curve, though single readings can be large or run the other way. This is one part of the list.
What follows are compounds tested against Galactocerebrosidase (Homo sapiens) (UniProt P54803) (assay: A Novel Cell-Based Assay to Identify Small Molecules for B -Galactocerebrosidase). Conditions: 145M-Twi-hGALC-G270D cells, HMU-beta-Gal fluorescence, 48 h; series mostly up to 57.5 µM; activation: at the top concentration.
Method in brief: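 qHTS, 1536-well; 145M-Twi-hGALC-G270D cells (WT line also made) in DMEM/F12 + 10% FBS; compound incubation on live cells; HMU-β-gal 0.1 mM final, pH 5.2, NaTC; carbonate stop; fluorescence increase = enhanced residual activity.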
Also: 0% is about no effect; nearly all actives have a fitted effect of over 65% in size.

Chain of UniProt P54803 (P54803 whole entry, looked up): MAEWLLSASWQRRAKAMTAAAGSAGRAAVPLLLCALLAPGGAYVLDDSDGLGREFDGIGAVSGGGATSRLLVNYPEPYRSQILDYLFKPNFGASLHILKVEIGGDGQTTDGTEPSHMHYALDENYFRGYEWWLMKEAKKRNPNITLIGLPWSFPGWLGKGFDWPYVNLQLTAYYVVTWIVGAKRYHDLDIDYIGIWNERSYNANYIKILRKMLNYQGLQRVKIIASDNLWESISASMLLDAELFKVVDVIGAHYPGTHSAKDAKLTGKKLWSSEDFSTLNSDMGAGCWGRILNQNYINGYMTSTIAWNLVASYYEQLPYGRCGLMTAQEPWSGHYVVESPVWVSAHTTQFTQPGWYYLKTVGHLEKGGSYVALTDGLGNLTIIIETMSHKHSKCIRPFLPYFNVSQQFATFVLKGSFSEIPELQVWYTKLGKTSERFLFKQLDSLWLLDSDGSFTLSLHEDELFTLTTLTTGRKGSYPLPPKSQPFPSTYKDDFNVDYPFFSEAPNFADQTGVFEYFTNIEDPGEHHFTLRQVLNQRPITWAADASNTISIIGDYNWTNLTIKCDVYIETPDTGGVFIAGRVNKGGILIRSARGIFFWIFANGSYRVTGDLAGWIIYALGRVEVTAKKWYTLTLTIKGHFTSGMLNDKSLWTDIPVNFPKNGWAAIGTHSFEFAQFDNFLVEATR

activation, inactive:
CC(=O)N[C@@H](CCC(N)=O)C(=O)O -9.26%
Cc1nn(C)c2c1c(C(F)(F)F)cc(=O)n2Cc1cccc(Br)c1 -2.17%
CCOC(=O)c1cc(-c2ccccc2)n(CCC(=O)Nc2ccc(Cl)c(C(F)(F)F)c2)c1C -11%
Cc1cccc(NS(=O)(=O)c2ccc(-n3cccn3)cc2)c1C -33.3%
C/C=C/C=N/NC(=O)c1ccncc1 -11.5%
CC(C)CNc1nc(Oc2ccc(OCC(N)=O)nn2)nc(N2CCOCC2)n1 0.943%
CCOc1ccc(CNC(=O)c2ccc(NC(=O)N3CCCCc4ccccc43)cc2)cc1OC -8.62%
CCn1cc(C(=O)NCc2ccc(C)cc2)c(=O)c2cc(S(=O)(=O)N3CCCCCC3)ccc21 -2.94%
COc1ccccc1CNC(=O)c1ccc2nc(-c3ccccc3)c(-c3ccccc3)nc2c1 -9.68%
O=C(CCc1nc2cccnc2n1Cc1cccs1)Nc1cccc(Cl)c1 -6.67%
CCOc1ccc(-n2c(-c3ccccc3)c(C)n3c4c(=O)n(C)c(=O)n(C)c4nc23)cc1 -7.08%
Cn1cc(S(=O)(=O)N2CCCCCC2)cc1C(=O)NCc1ccccc1Cl -16.7%
CCCC(=O)NCC(c1ccc2c(c1)OCO2)N1CCN(c2ccccc2)CC1 (configuration not stated) -15.7%
CCOC(=O)N1CCc2c(sc(NCc3ccc(OC)c(OC)c3OC)c2C(=O)Nc2ccc(OC)cc2OC)C1 -10.7%
CCc1ccc(-n2c(=O)c3sc4ccccc4c3n(Cc3cccc(F)c3)c2=O)cc1 -15%
CCCCCOc1ccc(/C=C/C(=O)Nc2sc(C(C)=O)c(C)c2C(=O)OCC)cc1OC -9.34%
CCc1nnc(NC(=O)c2nc(SCc3ccccc3C)ncc2Cl)s1 11.1%
CCCNC(=O)C1CCN(c2ncnc3c2nc2n3CCCCC2)CC1 -8.61%
Cc1c(Cl)cccc1NC(=O)Cn1c(=O)nc(-c2ccccc2)c2ccccc21 -10.7%
CC(=O)NO -22%
Cc1oc(C)c2c(=O)cc(-c3ccc4c(c3)OCO4)cc(OC(=O)c3ccccc3Cl)c12 -10.2%
COC(=O)c1cc(S(=O)(=O)NCC2CCN(Cc3cccc(F)c3)CC2)c[nH]1 -13.2%
CCc1cc2c(cc3c(=O)n(CC(=O)NCCc4ccc(OC)c(OC)c4)ncn32)s1 -10.5%
COc1ccc(-c2nc(CN3CCC(C(=O)NCCCOC(C)C)CC3)c(C)o2)cc1OC 9%
COc1cccc(-n2cc(C(=O)NCc3ccccc3OC)c3ccccc3c2=O)c1 -19.5%
COc1cccc(OCCSc2nc3ccccc3n2CC(=O)N2CCCCC2)c1 -30.3%
Cc1ccccc1Cn1c(=O)n(CCc2ccccc2)c(=O)c2c(C)c(C)sc21 -17.7%
COc1ccc(NC(=O)Cn2c(=O)n(Cc3nc(C)no3)c(=O)c3cc4c(cc32)OCO4)cc1OC -6.86%
Cc1cccc(C)c1-n1ncc(C(=O)NCCN2CCOCC2)c1C1CCN(C(=O)OC(C)(C)C)CC1 -1.91%
COC(=O)CSc1nc(-c2ccc(F)cc2)cc(C(F)(F)F)n1 12.7%
O=C(CCn1ccc2cc(S(=O)(=O)N3CCCC3)ccc21)NCc1cccc(F)c1 -10.3%
COc1cc(OC)c(C2Nc3ccccc3-c3nnc(SCc4ccccc4)nc3O2)cc1OC (configuration not stated) -11.8%
COc1ccc(OC)c(C2N=C(N)Nc3nc4ccccc4n32)c1 (configuration not stated) -3.07%
Cc1ccc(C)c(NC(=O)CCn2nc(C)c3c(C)n(-c4ccccc4)nc3c2=O)c1 5.8%
Cc1nc(-c2ccc(Cl)cc2)sc1CCNC(=O)c1ccc(C(F)(F)F)cc1 -13.4%
CCC1CCc2nc3sc(C(=O)Nc4ccc(F)c(Cl)c4)c(N)c3cc2C1 (configuration not stated) 3.27%
COc1ccccc1C(=O)OCc1cc(=O)n2nc(C3CC3)sc2n1 -17.9%
Cc1ccc(C)c(NC(=O)c2ccc3c(c2)CCN3S(C)(=O)=O)c1 4.91%
Cc1cccc(-c2nn3c(=O)cc(CN4CCN(S(=O)(=O)c5ccc(Cl)cc5)CC4)nc3s2)c1 -8.36%
CCC(C(=O)Nc1ccccc1C(=O)OC)n1nc(C)c2c(C)n(-c3ccc(C)cc3)nc2c1=O (configuration not stated) -0.7%
Cc1c(Cl)cccc1NC(=O)C(C)n1c(=O)cc(-c2ccccc2)c2c(C)nn(C)c21 (configuration not stated) -16.9%
COc1ccc(NC(=O)C(c2ccc(C)cc2)N(C)C(=O)Cc2cccs2)cc1 (configuration not stated) -13.1%
COc1ccccc1CNC(=O)CSc1ncc2c(n1)-c1ccc(Cl)cc1N(Cc1ccccc1)S2(=O)=O -21.8%
CCOc1ccccc1C(=O)N1CC(=O)Nc2ccc(Cl)cc2C1c1ccccc1 (configuration not stated) -18.2%
COc1ccc(-c2cccc(NS(=O)(=O)c3cc(C)c(OC)c(C)c3C)c2)nn1 -13.5%
O=C(Cn1c(=O)c2cc(Cl)ccc2n2nncc12)Nc1ccccc1 -5.96%
Cc1ccc(NC(=O)C2CCCN2S(=O)(=O)c2ccc3c(c2)CCCC(=O)N3)cc1C (configuration not stated) -1.82%
O=C(Cn1c(-c2cccs2)cc2cc(Cl)ccc21)N1CCN(c2ccccc2)CC1 -25.9%
CCc1ccc(NC(=O)c2sc3nc(C)c(Cl)c(C)c3c2N)cc1 -7.61%
CCc1ccc(-c2nc(CN3CCCC(C(=O)N4CCN(c5cc(Cl)ccc5C)CC4)C3)c(C)o2)cc1 (configuration not stated) -41.1%
COc1ccc(Cl)cc1NC(=O)CN(C)S(=O)(=O)c1ccc2c(c1)CCCN2C(C)=O -7.05%
CC(CNC(=O)Cn1ccc2cc(S(=O)(=O)N3CCCCCC3)ccc21)c1ccccc1 (configuration not stated) -8.55%
CC(=O)Nc1cc(C(=O)NCc2ccc(C)cc2)ccc1Sc1ccc(C)cc1 -14%
O=C(CC(c1cccs1)N1Cc2ccccc2C1=O)Nc1ccc(F)c(Cl)c1 (configuration not stated) 11.7%
C=CCC(CC=C)(CNC(=O)C(=O)Nc1cccc(C(F)(F)F)c1)c1ccccc1 4.8%
Cc1ccc(Oc2c(C(F)(F)F)oc3cc(OCC(=O)NC4CCCCC4)ccc3c2=O)cc1 2.7%
CCc1cccc(C)c1NC(=O)CSc1nc(C)cc(C)c1C(=O)Nc1ccccc1 -3.07%
CCCN1C(=O)C(O)(CC(=O)c2ccc(CC)cc2)c2ccccc21 (configuration not stated) -16.3%
Cc1cccc(-n2c(=O)c3c(c4cc(C)ccc4n3C)n(CC(=O)NCCC3=CCCCC3)c2=O)c1 -4.94%
COc1ccc(-c2noc(-c3cccnc3NCc3ccco3)n2)cc1 -6.51%
COc1ccc(-c2onc(C)c2C)cc1S(=O)(=O)NCC1CCN(Cc2ccccc2F)CC1 -8.45%
CCOC(=O)CSc1nc2ccccc2c(=O)n1CCc1ccc(OC)c(OC)c1 -9.19%
CCC1CN(C(=O)N2CCC(C(=O)NCCN(CC)CC)CC2)c2ccccc2O1 (configuration not stated) -10.5%
CCOC(=O)c1cc(-c2ccc(OC)c(S(=O)(=O)Nc3ccc(OC)cc3OC)c2)on1 -17.8%
Cc1ccc(CNC(=O)c2nnc(Cc3cccc(F)c3)o2)cc1 -15.8%
CCc1cccc(CC)c1NS(=O)(=O)c1ccc2c(c1)CCN2C(=O)C1CC1 -2.72%
CC(C)c1ccc(S(=O)(=O)c2cnc(SCC(=O)Nc3cccc(C(F)(F)F)c3)nc2N)cc1 -7.37%
COc1ccccc1-c1nnc(SCCOc2ccccc2C)o1 -21.6%
COc1ccc(N2CC(C(=O)Nc3ccc(NC(C)=O)cc3)CC2=O)cc1 (configuration not stated) -5.74%
O=C(Nc1ccc2nc(SCCOc3ccccc3Cl)sc2c1)c1cccs1 -24%
COC(=O)c1sccc1S(=O)(=O)N1CCN(c2ccccc2OC)CC1 -3.49%
Cc1ccc(C)c(S(=O)(=O)c2nnn3c2nc(N2CCOCC2)c2sccc23)c1 -9.58%
COc1ccc(NC(=O)C2=C(C)Nc3nc(CCCO)nn3C2c2ccc(O)cc2)cc1 (configuration not stated) -6.05%
COCCCNC(=O)C(=O)NCC(c1ccc2c(c1)OCO2)N1CCOCC1 (configuration not stated) -8.05%
CCN1C(=O)c2ccccc2S(=O)c2ccc(C(=O)NCc3ccc(F)cc3)cc21 (configuration not stated) -17.3%
CCOc1ccc(C(c2c(O)cc(C)n(CCOC)c2=O)N2CCN(c3ccccc3F)CC2)cc1 (configuration not stated) -8.82%
CC(C)N(Cc1ccccc1)c1ncnc2c1nnn2C -15.8%
Cc1cc(C)c2oc(C(=O)Nc3sc4c(c3C(=O)NCc3ccco3)CCCC4)cc(=O)c2c1 2.64%
CC(=O)N(CC(=O)N(C)C)c1ccccc1 17.8%
Cc1ccc(N(C(=O)COc2ccccc2C)S(=O)(=O)c2ccc(Cl)cc2)cc1 -15.2%
O=C(NCc1cccnc1)c1nn(-c2ccccc2F)nc1CO 4.01%
Cc1ccc(CNC(=O)CCSCc2ccccc2F)cc1 -10%
CCc1cccc(NC(=O)CCc2c(C)nc3c(c2C)c(=O)n(C)c(=O)n3C)c1 -6.16%
CCOc1ccc(NC(=O)N2CCC(CN3CCc4ccccc4C3)CC2)cc1 -7.61%
COc1ccccc1NC(=O)Cn1c(=O)n(-c2ccc(C)cc2)c(=O)c2ccc(C(=O)NCc3ccco3)cc21 -11.9%
COc1ccccc1N1CCN(c2ccc(=O)n(CC(=O)Nc3ccc(F)c(F)c3)n2)CC1 -17.6%
Cc1c(NC(=O)c2ccc(Cl)cc2)cc(C(C)C)c(O)c1S(=O)(=O)c1ccc(Cl)cc1 -8.89%
CCOCCCNC(=O)c1ccc(NC(=O)N2CCCCc3ccccc32)cc1 -6.97%
Cc1ccc(Nc2c(-c3cc(Br)ccc3F)nc3cc(C)ccn23)cc1 -19.1%
Cc1ccc(NC(=O)c2cccc(N3CCCS3(=O)=O)c2)cc1 -11.8%
O=C(NCc1ccc(Cl)cc1)C1CCCN(C(=O)c2cnn(-c3ccc(F)cc3)c2-n2cccc2)C1 (configuration not stated) -9.04%
CCC(=O)N1CCc2cc(CNC(=O)C(CC)c3ccccc3)ccc21 (configuration not stated) -14.1%
Cc1ccc(C)c(Nc2cc(C(=O)NC3CCCCC3)c3ccccc3n2)c1 -5.71%
O=C(CCn1c(=O)c2cccn2c2ccc(F)cc21)NCCc1ccccc1 14.3%
CCN(C(=O)CCNC(=O)Cn1cnc2ccccc2c1=O)c1cccc(Cl)c1 -14.7%
COc1ccc(C2=C(C)C(N3CCC(C(=O)Nc4cc(C)ccc4C)CC3)=NS2(=O)=O)cc1 -10.2%
CCCn1cc(S(=O)(=O)c2ccc(C)cc2)c(=O)c2cc(OC)c(OC)cc21 -12.3%

— PubChem BioAssay AID1159614 (National Center for Advancing Translational Sciences (NCATS), 2016)
